# Measurements: the supplement of paper PMC7335073
# The full ranking holds about 4,100 sequences; the median of “relative CpG methylation activity (normalised to average over all NNNCGNNN flanks)” is about 0.87, and the highest 2% start at about 2.4. The list shows a part of the results.
# Target: DNMT3A catalytic domain (mouse) (UniProt O88508)
# Test: relative CpG methylation activity (normalised to average over all NNNCGNNN flanks) (relative (1 = mean)); higher = more methylation of the central CpG
# Settings: system: in vitro, murine catalytic domain; CpG state: hemimethylated substrate pool; residues: 608-908
# Procedure, shortened: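 Murine DNMT3A or DNMT3B catalytic domain methylated pooled dsDNA substrates, each carrying a central CpG within 10 random flanking nucleotides, with 0.8 mM S-adenosyl-L-methionine in HEPES pH 7.5 buffer at 37 °C for 60 min. Proteinase K treatment, BsaI-HFv2 digestion, hairpin ligation, bisulfite conversion and two-step PCR preceded Illumina sequencing. Relative methylation activity is the average methylation of a flanking context divided by the mean across all contexts, where a context spans three bases on each side, and every experiment was repeated twice independently.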
row,Sequence,relative CpG methylation activity
1,GATCGAGA,0.292
2,TTCCGAAT,1.95
3,CTCCGACG,1.71
4,GGTCGGTC,0.625
5,CTTCGGCG,0.962
6,TTGCGGTG,0.648
7,AGGCGGCG,0.154
8,CTACGCTG,1.75
9,CCCCGCTA,0.969
10,GGTCGTTA,0.592
11,GCGCGTGT,0.46
12,CCGCGAGC,1.49
13,TAACGTTG,0.511
14,CAACGATT,0.678
15,AATCGACC,0.395
16,CTGCGCGA,1.63
17,TCACGAGG,0.943
18,GTACGTTT,1.27
19,TCCCGTCG,2.02
20,AGGCGCCC,1.44
21,GATCGAGG,0.098
22,ACACGTTT,1.18

row,Sequence,relative CpG methylation activity
1,TCTCGAGC,1.31
2,GGACGCTG,1.07
3,AATCGGAT,0.219
4,GTCCGGGG,0.917
5,GATCGGGT,0.0694
6,GGGCGTGT,0.349
7,CGCCGTCT,1.54
8,CTACGGTT,1.57
9,GAGCGGCC,1.46
10,CCCCGGTC,1.45
11,CGCCGAGA,0.789
12,CTTCGTCA,2.02
13,ACACGGGC,1.61
14,GCACGGAT,1.2
15,GCTCGAAC,1.33
16,CCCCGAGG,0.684
17,ATCCGCAT,1.94
18,TGGCGCTA,0.596
19,AGTCGTGT,0.198
20,AATCGGAA,0.35
21,TAGCGGGG,0.116
22,ACACGGTT,0.925

row,Sequence,relative CpG methylation activity
1,GTCCGACC,2.06
2,TCTCGTTC,0.763
3,TCCCGACC,1.53
4,CCACGGAG,0.478
5,CAGCGTGT,0.191
6,GACCGGCT,0.938
7,GGTCGTCA,0.941
8,CTACGTTA,1.92
9,CGGCGGGT,0.357
10,TCCCGCCA,1.51
11,GCCCGTTG,0.508
12,TTACGCAA,2.55
13,TGGCGAAA,0.596
14,TCGCGTCC,1.42
15,TTGCGTCT,1.67
16,TCACGATC,1.8
17,TACCGTTT,0.414
18,TAGCGCAC,0.675
19,ATCCGCTA,1.78
20,TATCGCCG,1.21
21,CCCCGGGG,0.685
22,GCACGTGA,0.545

row,Sequence,relative CpG methylation activity
1,ATCCGCTG,1.62
2,ACTCGTGA,0.87
3,TAGCGTCG,0.759
4,CTTCGCCG,1.97
5,CACCGCTT,1.67
6,GGCCGCGC,0.966
7,AGTCGAAA,0.457
8,GCCCGTCC,1.99
9,CCCCGGGT,1.1
10,ACGCGCCG,1.59
11,CCGCGAAC,1.48
12,GTACGACG,1.63
13,TCCCGCAG,0.382
14,TGTCGCCA,1.34
15,GGCCGAGT,1.05
16,GTACGCAT,2.11
17,AGCCGGAT,0.42
18,TGTCGACT,0.459
19,GCGCGAGG,0.649
20,AAGCGTAC,0.602
